Paper PMC12136788
The list shows a part of the results.

T1: UNK ZnF1-3 (human, UniProt Q9C0B0 31-174)
T1 sequence: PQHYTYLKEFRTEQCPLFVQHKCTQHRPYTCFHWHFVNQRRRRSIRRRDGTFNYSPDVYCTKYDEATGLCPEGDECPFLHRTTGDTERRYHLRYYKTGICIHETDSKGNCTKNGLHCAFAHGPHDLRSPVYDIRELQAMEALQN

B1: 110068728_110068848_708_CDS_ENSG00000119318_ENST00000358015|human|control|control (ssRNA)
RNA: GGGAGUUCUACAGUCCGACGAUCAGGUGCAGGUUCAGAAGAUGCUGUCGCUGAUGCUGGAGUGAUGGAUGCAGGUGUGGAAGUGGGGGCCAAGGCAGGGACAGGGGUUGGAGCCUGAGCCACAGUUGUGGUGGUGGAGGAAGUCAACAGAGGAUUGAGCAUCA
B2: chr12:111168485:111168486:-_ENSG00000186298_ENST00000335007|hu_mus|FALSE|FALSE (ssRNA)
RNA: GGGAGUUCUACAGUCCGACGAUCCAAGAGGCAGAUUGUCUCCAGGGACUGCUUGCCCCUGUCCACAUAGUCCCCGAGAAACAAAUAGUUGCUCUCUGGAGGAAAGCCACCGUAUUCAAACAGACGGAGCAAAUCAUAGUACUGCAACAGAGGAUUGAGCAUCA
B3: 27682458_27683508_6835_CDS_ENSMUSG00000022263_ENSMUST00000090247|mouse|control|control (ssRNA)
RNA: GGGAGUUCUACAGUCCGACGAUCAGGCAGAAGUCCUGCGUCUUGAUCUGUGACCAGGAAUGUGUCCUGUAAGAGCAGUUUACCCUGGGCAACAAUUUUACCGUCAAAUCCCUGCAGCCGCCCGACGUUCAUCAUGUCAUUACACAACAGAGGAUUGAGCAUCA
B4: chr2:48026839:48026840:+_ENSG00000116062_ENST00000540021|hu_hu|hu_hu_hu_mus_False|88_98 (ssRNA)
RNA: GGGAGUUCUACAGUCCGACGAUCAUAGUGAGCCACUAGAGUCCUAAAUCUCGAACAGUGGCGGUCAUCCGAAAACUGGCCGAUGAAAAACUUGCCCAGUGAAGUGUCCACAAAGCAAACACCAUACACACGAGUGUGACCAGACAACAGAGGAUUGAGCAUCA
B5: chr11:64847196:64847197:-_ENSG00000146670_ENST00000275517|hu_mus|FALSE|FALSE (ssRNA)
RNA: GGGAGUUCUACAGUCCGACGAUCCUGAGUGUACAGCACGGGGGUGCUGGAGGGAGUACCAGGGACACUACAAGUCUUGAAGAGGUCUUCUUUCGUGGGUACCUUGAGCGGAGGGUUGUUCUCUUUUUCCAAAAUAAAAGAGAUCAACAGAGGAUUGAGCAUCA
B6: 160235901_160243599_830_3pUTR_ENSG00000109756_ENST00000264431|human|control|control (ssRNA)
RNA: GGGAGUUCUACAGUCCGACGAUCUUCCACCACUGCGAACACCAUCACAGCACAGAGUUCUCGCCUCACUGACAUUGUCAUAUUGGCAAAAGCAGGCAACUGGUGCAUAAAUUCCAAGAGUUGUUCAAUGUCAUCAUCUGUCCGCAACAGAGGAUUGAGCAUCA
B7: 30634579_30634699_343_CDS_ENSG00000106105_ENST00000389266|human|control|control (ssRNA)
RNA: GGGAGUUCUACAGUCCGACGAUCGCUGCUCCGGGAGGCGGCGGCGGGCAAGGAGAUCGGGGGGCAGGAGGCCGCGCUGAGGGACCGGCGGAGCAGGAGCGAGGGUCGGGCUAAGAGCCGGGGCGGCAGCAGCAGCAGCAGAGCCAACAGAGGAUUGAGCAUCA
B8: chr17:56236750:56236751:+_ENSMUSG00000002833_ENSMUST00000002911|mus_hu|FALSE|FALSE (ssRNA)
RNA: GGGAGUUCUACAGUCCGACGAUCCCUCCGCUCCUUCUCCUCCUUCUCCUGCUCCCGCAGGCGCCGCAGCUCCUCCUCCUGCUCUCGCCGCCGCCGGGCCUCCAGCUCGCGCCUCCGCGCCUCGUCCCGCCGCUUCCACUCACUCAACAGAGGAUUGAGCAUCA
B9: chr16:23111026:23111027:+_ENSMUSG00000022884_ENSMUST00000148085|mus_mus|motif|central (ssRNA)
RNA: GGGAGUUCUACAGUCCGACGAUCGAUAUGCUACCCACAAAGAUCAUGAUGAUCUCCAAGCUGAGUAUUUAUUGCUGGUCGGAAUACUUAUUGCACCGAAUCUUAUGACAUAGGACACUGGACAUUAAGAAAGAGGUCCACCCCCAACAGAGGAUUGAGCAUCA
B10: chr10:62551973:62551974:+_ENSG00000170312_ENST00000395284|hu_hu|motif|central (ssRNA)
RNA: GGGAGUUCUACAGUCCGACGAUCUAACAUUUUCGAGAGCAAAUCCAAGCCAUUUUCAUCCAAGUUUUUGACAUGGGAUGCGGGGCUUCCUGGUUUCCAUUUGGGAAAUGUAUUCUUAUAGUCCUGUAAAGAUUCCACUUCUGGCAACAGAGGAUUGAGCAUCA
B11: chr7:90019433:90019434:+_ENSMUSG00000057706_ENSMUST00000082237|mus_hu|mus_mus_mus_hu_True|78_88 (ssRNA)
RNA: GGGAGUUCUACAGUCCGACGAUCAAAUAAUACAGUGUUCUUUGCCAAAGGCCAUACUAAAAAUAAAAAGAUUUAACCCAGCUACAAAAAAGUUCACUGAACUUAAAUUAAAAUACUUGUAAACAUCUUUGCAAUAUGAAAUAUCAACAGAGGAUUGAGCAUCA
B12: chr8:74858975:74858976:-_ENSG00000154582_ENST00000284811|hu_mus|hu_hu_hu_mus_True|38_38 (ssRNA)
RNA: GGGAGUUCUACAGUCCGACGAUCGACCUUGUAGGUAAAAUACAUGCACACUUUUGAUAGCACAUGUGAGGGGAUCUCUCUAAAAUUGACCUCGUUGGUUUCGUUCUCAGCAAACUGACCUGGACCACUCAACAUAGCCUUUAUCAACAGAGGAUUGAGCAUCA
B13: 52131463_52132751_2120_CDS_ENSG00000112118_ENST00000229854|human|control|control (ssRNA)
RNA: GGGAGUUCUACAGUCCGACGAUCAUCUUUGGCAUCUGGCUGGCGAGUCUUCCUUCUCUUCCUCUUCUGCUCCUGGUCCUCUUGGCUUUUCUCCUCUUCAUCUUCUGUCUCUGAUUCAUCCUCACUUCGCUUCUUACGUUUCUUCAACAGAGGAUUGAGCAUCA
B14: chr1:137302511:137302512:-_ENSMUSG00000041879_ENSMUST00000161189|perfect_dup|motif|central (ssRNA)
RNA: GGGAGUUCUACAGUCCGACGAUCUUAACGGUGCUUUUGAACUUGCUGUUCUCCAGUAGGGCAUGGACAAACUCAAAAAUGCGGAAGACGAGGUUCUCAAAGCCCAGGACUUCUCCAUCCGAAUCCACAGGAUCUUCCACUUCCCAACAGAGGAUUGAGCAUCA

target: T1, UNK ZnF1-3; assay: nsRBNS (natural sequence RNA bind-n-seq); RBNS binding buffer (assumed for nsRBNS): 25 mM Tris pH 7.5, 150 mM KCl, 3 mM MgCl2, 0.01% Triton X-100, 500 ug/ml BSA, 20 U/ml SUPERase-In, 4 C; UNK is unkempt and MSI1 is Musashi-1; names of the RNAs are library labels; protein concentration not given here; high values mean tight binding

Point of comparison: B11, binding signal 1.82 enrichment R. Against it:
- B1 — lower, 1.7 enrichment R
- B2 — lower, 1.05 enrichment R
- B3 — lower, 0.976 enrichment R
- B4 — lower, 1.06 enrichment R
- B5 — lower, 1.27 enrichment R
- B6 — lower, 1.09 enrichment R
- B7 — higher, 2.73 enrichment R
- B8 — lower, 0.722 enrichment R
- B9 — lower, 1.11 enrichment R
- B10 — lower, 0.7 enrichment R
- B12 — lower, 0.71 enrichment R
- B13 — lower, 0.289 enrichment R
- B14 — lower, 1.17 enrichment R
